Laboratory results from PubChem BioAssay AID493208 (National Center for Advancing Translational Sciences (NCATS), 2011).
In all, about 44,000 compounds went through this assay and about 340 (0.77%) were called active. About 5% were inconclusive and are not listed. Calls come from the whole dose curve; as a rule, active = well fitted inhibition curve with a large enough effect; inconclusive = small, poorly fitted or top-dose-only effect; inactive = flat fitted curve, though single readings scatter. The list shows a part of the results.

Assay: Acumen qHTS Assay for Inhibitors of the mTORC1 Signaling Pathway in MEF (Tsc2-/-, p53-/-) Cells: Sytravon; note: nearly all actives have a fitted effect of over 50% in size;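 for activity change, negative = inhibition: plate controls were DMSO for no effect and rapamycin for full effect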
Details: phospho-rpS6 immunofluorescence/PI, 24 h; series mostly up to 38.3 µM; activity change, negative = inhibition: at the top concentration
Procedure, shortened: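 Tsc2-/-, p53-/- MEFs (empty-vector stable line) in DMEM + 10% FBS were treated with compounds 24 h at 37 degree Celsius, fixed, and immunostained for phospho-rpS6 (Alexa-488) with propidium iodide counterstain. Laser-scanning cytometry gave % positive cells, normalized against 7.5 nM rapamycin and DMSO.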
Potency is the fitted concentration of half-maximal effect.

| SMILES | activity change, negative = inhibition | Potency |
| --- | --- | --- |
| O=C(CSc1nc2c(c(=O)[nH]1)CCC2)Nc1cccc(O)c1 | inactive: 1.87% | – |
| CC(NC(=O)c1cccc(Nc2nc3ccccc3n3nnnc23)c1)c1ccccc1 (stereo not drawn) | inactive: -15.1% | – |
| COc1ccc(OC)c(NC(=O)Nc2cccc(OCc3cc(=O)n4cc(C)ccc4n3)c2)c1 | inactive: 2.05% | – |
| CCn1c(=O)c2sccc2n2c(CCCC(=O)Nc3ccc(C)cc3)nnc12 | inactive: -3.43% | – |
| Cc1ccc(N2CCN(c3ncnc4onc(-c5ccc(F)cc5)c34)CC2)c(C)c1 | inactive: 1.96% | – |
| COc1cc(NC(=O)c2c(C)nn(-c3ccc(F)cc3)c2-n2cccc2)cc(OC)c1 | inactive: 2.32% | – |
| Cc1ccc(S(=O)(=O)NCCc2nnc3ccc(SCc4cccc(F)c4)nn23)cc1 | inactive: -2.71% | – |
| COc1ccc(-c2nc3ccccc3o2)cc1NC(=O)c1ccc(-c2ccc(C)c(Cl)c2)o1 | inactive: 3.09% | – |
| COc1ccc(CC(=O)Nc2c(C(=O)N3CCN(c4ccccc4F)CC3)oc3ccccc23)cc1OC | inactive: 1.94% | – |
| CCN(C(=O)c1cc2c(=O)oc3ccccc3c2s1)c1cccc(C(F)(F)F)c1 | inactive: 0% | – |
| CCOc1ccc(OCC)c(Nc2nc3ccccc3n3nnnc23)c1 | inactive: -5.48% | – |
| O=C1C2=C(Nc3ccccc3SC2c2ccc(C(F)(F)F)cc2)c2ccccc21 (stereo not drawn) | inactive: -14.9% | – |
| O=C(CN1C=NS(=O)(=O)c2ccccc21)Nc1ccc(Br)cc1 | inactive: -5.7% | – |
| Cc1ccccc1CNC(=O)CCCn1ncn2c(cc3occc32)c1=O | inactive: -12% | – |
| COc1ccc(NC(=O)CSC2=Nc3ccccc3C3=NC(Cc4ccccc4)C(=O)N23)cc1 (stereo not drawn) | inactive: 14.1% | – |
| COc1ccccc1Nc1ncc2c(n1)CCN(CC(C)C)C2 | inactive: 6.07% | – |
| COCCNC(=O)c1ccc2c(c1)NC(=O)C(CS(=O)(=O)Cc1ccc(F)cc1Cl)N2 (stereo not drawn) | inactive: -3.85% | – |
| COc1ccc(NC(=O)c2c(NC(=O)c3cccc(C)c3)sc3c2CCC3)cc1 | inactive: -9.71% | – |
| COc1cccc(CNC(=O)c2ccc3oc(=O)n(Cc4ccccc4)c3c2)c1 | inactive: 0.957% | – |
| Cc1ccccc1CN1C(=O)c2ccccc2Sc2ccc(C(=O)N3CCOCC3)cc21 | inactive: 6.64% | – |
| COc1ccccc1-c1c(C(F)(F)F)oc2c(CN3CCCCC3C)c(O)ccc2c1=O (stereo not drawn) | inactive: -15% | – |
| CC(=O)c1[nH]c(C)c(C(=O)NCc2ccc(Cl)cc2)c1C | inactive: -10.1% | – |
| COc1cc(C)c(S(=O)(=O)Nc2cccc(-c3ccc(N4CCCC4)nn3)c2)cc1C | inactive: 1.5% | – |
| Cc1cc(F)ccc1NC(=O)CCS(=O)(=O)c1cccc2nsnc12 | inactive: -6.14% | – |
| Cc1cccc(-c2nc(-c3ccc4c(c3)[nH]c(=O)n4C)no2)c1 | inactive: -0.135% | – |

| SMILES | activity change, negative = inhibition | Potency |
| --- | --- | --- |
| CCCN(CCC)CCCNC(=O)c1cc2c(-c3ccc(Cl)cc3)nn(C)c2s1 | – | active: 13.1 µM |
| Cc1cccc(NC(=O)CSc2nc3c(oc4ccccc43)c(=O)n2-c2ccccc2)c1C | inactive: -2.31% | – |
| Cc1ccc(S(=O)(=O)N2CCC(C(=O)Nc3cc(C)ccc3C)CC2)cc1 | inactive: 3.82% | – |
| COc1cc(-c2cc3n(C)c(C)c(CCC(=O)Nc4ccc(F)cc4)c(=O)n3n2)cc(OC)c1OC | inactive: 0.123% | – |
| COc1ccc(Cn2c(=O)c3oc4ccccc4c3n(Cc3ccccc3)c2=O)cc1 | inactive: -5.73% | – |
| Cc1ccc(OCCSc2nc(-c3cccs3)nc3cc(=O)[nH]n23)cc1Cl | inactive: 4.84% | – |
| CCOC(=O)c1[nH]c(C)c(CCC(=O)NCc2cccc(Cl)c2)c1C | inactive: 4.72% | – |
| O=C(CSc1c2c(nc3ccccc13)CCC2)Nc1ccc(F)cc1F | inactive: -11.6% | – |
| COc1ccccc1CCNC(=O)Cc1c(C)c2c(O)cc(C)cc2oc1=O | inactive: -14.7% | – |
| COC(=O)c1ccc([C@@H]2Nc3c(cccc3C(F)(F)F)[C@@H]3C=CC[C@@H]32)cc1 | inactive: -6.77% | – |
| Cc1ccc(NC(=O)CSc2nc3c(c(=O)[nH]2)CN(Cc2ccccc2)CC3)cc1Cl | inactive: 2.22% | – |
| CC(=O)N1c2ccccc2C(=O)C1N1CCN(c2cccc(C)c2C)CC1 (stereo not drawn) | inactive: -6.11% | – |
| Nc1nc2nc(-c3ccc(Cl)cc3)cc(C(F)(F)F)n2n1 | inactive: -2.5% | – |
| COC(=O)c1c(NC(=O)C2c3ccccc3Oc3ccccc32)sc2c1CCC(C)C2 (stereo not drawn) | inactive: -3.04% | – |
| Nc1nonc1-c1nc2ccccc2n1Cc1ccc(Br)cc1 | inactive: 3.65% | – |
| CC(CNC(=O)c1sc2ncccc2c1-n1cccc1)c1ccccc1 (stereo not drawn) | inactive: 0.731% | – |
| CC(C)(Oc1ccc(Cl)cc1)C(=O)Nc1cccc(-c2cn3cccnc3n2)c1 | inactive: 0.534% | – |
| Cc1nc2scc(C)n2c(=O)c1S(=O)(=O)Nc1ccc(N2CCN(C(=O)C(C)C)CC2)cc1 | inactive: -9.89% | – |
| Cc1ccc(NC(=O)C2=CC(c3cccs3)=NS(=O)(=O)N2C)cc1 | inactive: 0.733% | – |
| O=C(CC(c1cccs1)N1Cc2ccccc2C1=O)Nc1ccccc1F (stereo not drawn) | inactive: -5.97% | – |
| Cc1ccc(CSC2=Nc3ccccc3C3=NC(CCC(=O)NCCc4ccccc4)C(=O)N23)cc1 (stereo not drawn) | inactive: 0.0741% | – |
| COC(=O)c1cc2occc2n1Cc1ccc(F)cc1Cl | inactive: -5.67% | – |
| Cc1ccc(NC(=O)CN2C(=O)CSc3ccc(S(=O)(=O)N(C)C)cc32)cc1C | inactive: -16.4% | – |
| Cc1ccc(-c2nn(CCC(=O)Nc3ccc(Cl)c(Cl)c3)c(=O)c3ccccc23)cc1 | inactive: 3.43% | – |
| CCOc1cc(C2C(C(N)=O)=C(C)Nc3ncnn32)cc(Br)c1O (stereo not drawn) | inactive: 1.81% | – |

| SMILES | activity change, negative = inhibition | Potency |
| --- | --- | --- |
| COc1ccc(-c2nc(S(=O)(=O)c3ccc(Cl)cc3)c(N3CCCCCC3)o2)cc1 | inactive: 3.43% | – |
| Cc1ccc(C(=O)NCCSc2c(C)[nH]c3ccccc23)cc1C | inactive: 8.6% | – |
| Cc1cccc(NC(c2cccc(F)c2)c2ccc3ccc(C)nc3c2O)n1 (stereo not drawn) | inactive: -16.8% | – |
| NC(=O)CSc1nc2ccc(NC(=O)COc3ccccc3)cc2s1 | inactive: 1.23% | – |
| CCCn1c(=N)c(C(=O)NC2CCCC2)cc2c(=O)n3cc(C)ccc3nc21 | inactive: 0.236% | – |
| CC1CCC(NC(=O)c2ccc3c(c2)N(Cc2ccccc2F)C(=O)c2ccccc2S3)CC1 (stereo not drawn) | inactive: -0.0302% | – |
| CC1CCN(S(=O)(=O)c2ccc3c(c2)N(CC(=O)NCc2ccccc2Cl)C(=O)CS3)CC1 | inactive: 1.49% | – |
| Cc1nc2ccc(S(=O)(=O)NC(C(=O)NCc3ccccc3Cl)C(C)C)cc2s1 (stereo not drawn) | inactive: -9.85% | – |
| CCCCNc1ccc(-c2nc(-c3ccccc3)no2)cc1[N+](=O)[O-] | inactive: -7.27% | – |
| O=C(Nc1cccc(C(F)(F)F)c1)C1CCCN(S(=O)(=O)c2cccc3nsnc23)C1 (stereo not drawn) | inactive: -3.65% | – |
| Cc1ccc2c(CC(=O)N3CCN(c4cccc(Cl)c4)CC3)coc2c1 | inactive: 2.25% | – |
| O=S(=O)(Nc1ccc(F)c(C(F)(F)F)c1)c1ccc(N2CCCCS2(=O)=O)cc1 | inactive: 23.5% | – |
| COc1ccc(C2C(=O)N(C3CCC(C)CC3)CC(=O)N2Cc2ccc(C)cc2)cc1OC (stereo not drawn) | inactive: -10% | – |
| CSc1ncc(Cl)c(C(=O)NCc2ccc(C)cc2)n1 | inactive: -3.35% | – |
| Cc1cc(C)cc(NC(=O)Cn2nnc(C(=O)NCCc3ccccc3)c2N)c1 | inactive: -2.21% | – |
| COc1ccc(OC)c(CNS(=O)(=O)c2c(C(=O)N3CCC(C)CC3)c(C)n(C)c2C)c1 | inactive: 0% | – |
| CCOc1ccc(C(=O)NCCc2sc(-c3ccc(C)cc3)nc2C)cc1 | inactive: -6.88% | – |
| COc1cc(Nc2nc(SCc3ccccc3F)nc3ccccc23)cc(OC)c1 | inactive: -4.9% | – |
| Cc1ccc(CCNC(=O)c2ccc(CS(=O)(=O)c3ccc(Br)cc3)o2)cc1 | inactive: -21.3% | – |
| CCOc1ccccc1NC(=O)CSc1c(C)cnc2c1c(=O)n(C)c(=O)n2C | inactive: -0.136% | – |
| CC1=C(C(=O)Nc2cccc(C)c2C)C2(CCCCC2)OC1=O | inactive: -11.4% | – |
| CC1=C(C(=O)Nc2c(C)cc(C)cc2C)C2(CCN(C(C)C)CC2)OC1=O | inactive: 0% | – |
| CCOCCCNC(=O)C(c1ccc(OC)cc1)N(Cc1cccs1)C(=O)c1ccccc1O (stereo not drawn) | inactive: 3.76% | – |
| COc1ccc(CCNC(=O)c2cnc3sc(N4CCCCCC4)nn3c2=O)cc1OC | inactive: 0.0984% | – |
| CC(C)CCN1C(=O)N(c2ccccc2)C(=O)C1CC(=O)Nc1ccc(Cl)cc1 (stereo not drawn) | inactive: -0.587% | – |

| SMILES | activity change, negative = inhibition | Potency |
| --- | --- | --- |
| CC(C)NC(=O)CSc1nc2ccccc2nc1N1CCCCC1 | inactive: -1.44% | – |
| Cc1ccc(Sc2ccc(N3CCCC(C(=O)Nc4ccc(Cl)cc4)C3)nn2)cc1 (stereo not drawn) | inactive: 0.421% | – |
| COc1ccc(C(c2c(C)n(C)n(-c3ccccc3)c2=O)c2c(C)n(C)n(-c3ccccc3)c2=O)cc1O | inactive: -20.7% | – |
| CCOc1cccc2sc(N(Cc3cccnc3)C(=O)c3ccco3)nc12 | inactive: -2.56% | – |
| COc1cc(OC)c(NC(=O)Nc2nnc(N(C)C3CCCCC3)s2)cc1Cl | inactive: 2.69% | – |
| Cc1ccc(N2CC(NC(=O)Cc3cccs3)CC2=O)cc1 (stereo not drawn) | inactive: -3.25% | – |
| COc1ccc(-c2cc3c(=O)n(CC(=O)Nc4ccccc4C(F)(F)F)ccn3n2)cc1OC | inactive: 21.6% | – |
| CC1CCN(CC(=O)N2CCCc3c2c(=O)oc2ccc(OCc4ccccc4)cc32)CC1 | inactive: -3.82% | – |
| CC(=O)c1ccc(NC(=O)CN(C)S(=O)(=O)c2cc3c(cc2C)NC(=O)CO3)cc1 | inactive: -6.31% | – |
| Cc1c(C(=O)Nc2ccc(Br)cc2F)oc2ccc(S(=O)(=O)N3CCCCC3)cc12 | inactive: 2.17% | – |
| CC1(C(=O)Nc2cccc(C(F)(F)F)c2)Cc2ccccc2C(=O)O1 (stereo not drawn) | inactive: -11.9% | – |
| COc1ccc(CNC(=O)C2CCCCN2S(=O)(=O)c2ccc(F)cc2)cc1 (stereo not drawn) | inactive: 5.64% | – |
| Cc1nc(N2CCOCC2)c2c(C(=O)N3CCN(c4cc(Cl)ccc4C)CC3)c(C)oc2n1 | inactive: -4.44% | – |
| O=C(CN1C(=O)C2CCCCN2c2ccc(C(=O)N3CCCC3)cc21)NCc1ccc(F)cc1 (stereo not drawn) | inactive: 0% | – |
| CCOc1ccccc1CNc1ncnc2onc(-c3ccc(F)cc3)c12 | inactive: -2.52% | – |
| CCN1CCC(N(Cc2ccc(F)cc2)C(=O)Nc2cc(C)ccc2C)CC1 | inactive: 0.19% | – |
| CCCNC(=O)CN1C(=O)COc2ccc(S(=O)(=O)N3CCCC3)cc21 | inactive: -7.58% | – |
| COc1ccc(-n2cc(C(=O)NCCc3ccc(C)cc3)c3ccccc3c2=O)cc1 | inactive: -21% | – |
| CC1CCCCN1C(=O)CSc1nc2ccccc2nc1Cc1ccccc1 (stereo not drawn) | inactive: -0.447% | – |
| COC(=O)c1ccc(C2CC(=O)Nc3c2c(C)nn3-c2nc(C)cc(C)n2)cc1 (stereo not drawn) | inactive: -1.06% | – |
| O=C(Nc1ccc(S(=O)(=O)Nc2ncccn2)cc1)c1cccc(Cl)c1 | inactive: -5.33% | – |
| CCOc1ccc(N2C(=O)c3[nH]nc(-c4ccccc4)c3C2c2ccc(O)c(OC)c2)cc1 (stereo not drawn) | inactive: -23% | – |
| CCn1c(SC)nc2c([nH]c3ccccc32)c1=O | inactive: -5.23% | – |
